# According to article PMC4336329 (PLoS ONE, 2015):
# The whole screen tested about 310,000 compounds, of which about 14,000 (4.5%) showed an effect of 50% or more. Effects have a minus sign here. The list shows a part of the results.
# Target: human ether-à-go-go-related gene (hERG) potassium channel (human, UniProt Q12809)
# Experiment: primary screen, population patch clamp on CHO cells stably expressing hERG
# 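Further: peak tail current of the secondary pulse compared with the same well before compound.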
# Chain of human ether-à-go-go-related gene (hERG) potassium channel (Q12809 whole entry, looked up): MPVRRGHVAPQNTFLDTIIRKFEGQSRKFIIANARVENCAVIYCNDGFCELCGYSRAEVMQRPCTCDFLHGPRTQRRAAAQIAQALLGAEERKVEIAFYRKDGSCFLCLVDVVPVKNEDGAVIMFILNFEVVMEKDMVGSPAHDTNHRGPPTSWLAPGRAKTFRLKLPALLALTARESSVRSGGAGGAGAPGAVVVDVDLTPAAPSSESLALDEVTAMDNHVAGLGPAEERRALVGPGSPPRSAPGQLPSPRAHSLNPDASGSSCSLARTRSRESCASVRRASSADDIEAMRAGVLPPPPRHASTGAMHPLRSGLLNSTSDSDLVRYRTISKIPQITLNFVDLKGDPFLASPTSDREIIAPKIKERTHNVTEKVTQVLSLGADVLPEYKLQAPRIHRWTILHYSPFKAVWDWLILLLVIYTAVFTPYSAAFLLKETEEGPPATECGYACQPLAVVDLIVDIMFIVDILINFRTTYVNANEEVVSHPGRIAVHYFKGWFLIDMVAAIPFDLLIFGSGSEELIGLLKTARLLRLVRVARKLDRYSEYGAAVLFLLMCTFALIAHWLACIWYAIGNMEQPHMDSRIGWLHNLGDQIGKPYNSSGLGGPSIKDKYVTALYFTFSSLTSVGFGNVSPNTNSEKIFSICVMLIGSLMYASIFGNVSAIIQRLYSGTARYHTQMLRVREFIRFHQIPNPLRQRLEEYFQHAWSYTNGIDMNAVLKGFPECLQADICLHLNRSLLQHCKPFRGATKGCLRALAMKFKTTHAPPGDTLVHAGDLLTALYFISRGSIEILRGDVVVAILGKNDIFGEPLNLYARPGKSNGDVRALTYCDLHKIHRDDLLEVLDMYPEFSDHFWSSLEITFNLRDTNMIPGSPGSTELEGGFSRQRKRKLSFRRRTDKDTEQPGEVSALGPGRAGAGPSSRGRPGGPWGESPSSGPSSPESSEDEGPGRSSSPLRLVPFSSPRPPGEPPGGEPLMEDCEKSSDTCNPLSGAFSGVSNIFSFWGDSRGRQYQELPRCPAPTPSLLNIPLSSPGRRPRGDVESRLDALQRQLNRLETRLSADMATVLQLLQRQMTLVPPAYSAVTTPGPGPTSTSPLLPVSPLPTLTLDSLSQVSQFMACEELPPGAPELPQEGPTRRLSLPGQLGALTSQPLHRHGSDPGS
row,Structure (SMILES),"hERG current change (%, negative = inhibition) at 10uM"
1,Cn1c(N)c(S(=O)(=O)NCc2ccc(Cl)cc2)c(=O)n(C)c1=O,24.3%
2,CN(C)/C=C/C(=O)c1cccc([N+](=O)[O-])c1,4.2%
3,CN1CCc2nc(SCC(=O)OC(C)(C)C)c(C#N)cc2C1,-13.7%
4,CCC(=O)NC1(C(F)(F)F)C(=O)Nc2c1c(=O)[nH]c(=O)n2Cc1ccco1 (stereo not drawn),8.93%
5,COCCOC(=O)C1=C(C)N=c2s/c(=C\c3cccs3)c(=O)n2C1c1cccs1 (stereo not drawn),9.93%
6,N#C/C(=C\C=C\c1ccccc1)C(=O)Nc1ccccc1,14.6%
7,CC1=CC(C)(C)Nc2cc(C)c(C)cc21,-4.74%
8,CCOc1ccc(NC(=O)COC(=O)CCC(=O)c2cccs2)cc1,5.07%
9,CSc1nc(N)n2nc(-c3ccc(Cl)cc3)cc2n1,5.44%
10,CCOc1cccc(C(=O)Nc2ccncc2)c1,14.1%
11,Cc1ccc2cc(/C=N/NC(=O)[C@@H]3CCCN3)c(Cl)nc2c1.Cl,-18.2%
12,Cc1nn(C)cc1CNCc1c(C(=O)N2CCCCC2)nc2c(C)cccn12,-2.52%
13,CC[C@@]12C(=O)N(c3cccc(C)c3)C(=O)N1[C@H](c1ccc(OC)cc1)[C@@H]1C(=O)N(C(C)(C)C)C(=O)[C@@H]12,3.75%
14,Cc1ccc(NC2=Nc3ccccc3CS2)cc1,8.04%
15,CCOC(=O)c1sc(CS(=O)(=O)c2ccc(Cl)cc2)nc1C,-9.81%
16,CCCCNC(=S)NCc1ccc2[nH]c3c(c2c1)CCCC3,-1.58%
17,CCOc1cc(/C=N/NC(=O)C(C)Sc2ccccc2)ccc1O (stereo not drawn),-5.93%
18,O=C(Nc1ccccc1)Nc1cnccn1,24.1%
19,CS(=O)(=O)N1CCN(C(=O)NC23CC4CC(CC(C4)C2)C3)CC1,5.59%
20,CCOC(=O)c1[nH]c(C)c(C(=O)Nc2ccc(C)c(C)c2)c1C,14.6%
21,O=C(Nc1cccnc1)c1ccc2ccccc2c1O,3.64%
22,COn1c(=O)c(-c2cccc(Br)c2)[n+]([O-])c2ccccc21,12.8%
23,COC(=O)c1cccnc1-n1c(=O)c2cccnc2n(Cc2cccc(C(F)(F)F)c2)c1=O,-20.6%

row,Structure (SMILES),"hERG current change (%, negative = inhibition) at 10uM"
1,Cn1c(C(=O)N2CCCC(C(=O)c3ccc(C(F)(F)F)cc3)C2)cc(=O)n(C)c1=O (stereo not drawn),-71.7%
2,CCO.NCCc1c[nH]c2ccc(C(N)=O)cc12.O=C([O-])/C=C\C(=O)[O-],11.6%
3,O=C(NCc1ccc(Cl)cc1)N1CCOCC1,16.2%
4,O=C(NCCS(=O)(=O)N1CCN(c2ccc(F)cc2)CC1)C12CC3CC(CC(C3)C1)C2,-10.5%
5,CC1=C([N+](=O)[O-])C(c2ccccc2)C2=C(N1)c1ccccc1C2=O (stereo not drawn),3.48%
6,O=C(Nc1ccc(F)cc1)c1ccc(-n2cncn2)c([N+](=O)[O-])c1,-18.9%
7,O=C(CCC(=O)N1CCSc2ccccc21)NCCc1ccccc1,-30.5%
8,CCN(CC)C(=O)CSC1=Nc2ccccc2C2=NC(Cc3c[nH]c4ccccc34)C(=O)N12 (stereo not drawn),-16.2%
9,Cc1c(C(=O)NC2CCCc3ccccc32)cccc1[N+](=O)[O-] (stereo not drawn),12.9%
10,CCNC(=S)Nc1cccc(Cl)c1C,-12.9%
11,COc1ccc(/C=C/C(=O)OCC(=O)Nc2ccc(Cl)cc2F)cc1S(=O)(=O)N1CCOCC1,1.6%
12,O=C(/C=C/c1ccccc1)NCCc1cnc[nH]1,-5.14%
13,Cc1ccc(C2NNC(=O)C2NC(=O)c2ccccc2)cc1 (stereo not drawn),19.1%
14,COc1cc(C(=O)Nc2ccc(Nc3ccccc3)cc2)cc(OC)c1OC,1.07%
15,O=C(O)c1cc(S(=O)(=O)N2CCCCCC2)ccc1Cl,20%
16,CCOc1ccccc1NC(=S)N1CCC(NC(=O)C(C)(C)C)CC1,25.6%
17,O=c1c2ccccc2nc(Cc2ccccc2)n1-c1cccc(O)c1,-31.5%
18,O=c1[nH]c(C2CCCN(S(=O)(=O)c3ccccc3)C2)nc2c1nnn2Cc1ccccc1F (stereo not drawn),-3.27%
19,CCCC(=O)NC(c1ccccc1Cl)c1c(O)ccc2ccccc12 (stereo not drawn),10.8%
20,O=C1CN(C(=O)/C=C/c2ccco2)c2ccccc2N1,-28.6%
21,Cc1[nH]c2ccc(OC(F)(F)F)cc2c1CCNCc1cccc([N+](=O)[O-])c1,-25.4%
22,Cc1ccn(-c2n[nH]c(C)c2[N+](=O)[O-])n1,15.6%
23,O=C(c1ccc(Cl)cc1)c1c[nH]c(C(=O)NNc2ccccc2)c1,-4.74%

row,Structure (SMILES),"hERG current change (%, negative = inhibition) at 10uM"
1,CC(C)N(C(=O)C1CC(=O)OC12CCCCC2)C(C)C (stereo not drawn),-14.6%
2,CCN1CCN(c2ncnc3scc(-c4ccc(OC)cc4)c23)CC1,-54.6%
3,CCOc1ccc(N2CC(C(=O)Nc3nnc(CC)s3)CC2=O)cc1 (stereo not drawn),-53.6%
4,CN(C)Cc1c(C(=O)N/N=C/c2ccco2)nnn1-c1nonc1N,-18.2%
5,CCCN(CCC)S(=O)(=O)c1ccc(NS(=O)(=O)c2ccc(F)cc2)cc1,5.18%
6,Cc1ccsc1/C=N/NC(=O)CNC(=O)c1c(F)cccc1Cl,21.2%
7,COc1ccc(C2=NNC(c3cccs3)=Nc3ccc(OC)cc32)cc1,6.92%
8,COCCN(C(=O)C1CC(=O)N(Cc2ccccc2)C1)c1nc(-c2ccc([N+](=O)[O-])cc2)cs1 (stereo not drawn),-29.7%
9,Cc1cc(Nc2cccc(Cl)c2C)n2ncnc2n1,0.621%
10,CN(C)c1ccc(-c2nnc(-c3cccnc3)o2)cc1,7.04%
11,Cc1cc(NS(=O)(=O)c2ccc(NC(=O)COc3c(C)cc(Br)cc3C)cc2)no1,12.5%
12,COc1ccc(CN(Cc2ccco2)S(=O)(=O)c2ccc(S(=O)(=O)N3CCCC3)cc2)cc1,0.256%
13,O=S(=O)(Nc1ccc(F)cc1)c1cccc2nsnc12,3.96%
14,CN(C)C(CNC(=O)c1ccc(-c2ccccc2)cc1)c1ccccc1 (stereo not drawn),-22.5%
15,O=C(c1ccoc1)N1CCCC(N2CCN(c3cccc(C(F)(F)F)c3)CC2)C1 (stereo not drawn),-55.5%
16,CC(=O)OCc1cc(-c2nn(C)c(=O)c3ccccc23)ccc1C,2.25%
17,CCOc1ccccc1Oc1cn[nH]c1-c1ccc(OCC(=O)NN)cc1O,1.6%
18,O=[N+]([O-])c1ccc(Cl)c(CN2CCC(O)CC2)c1,2.93%
19,COc1ccc(OC)c(C(C)NC=O)c1 (stereo not drawn),11.1%
20,COc1cccc(/C=C/c2ccc3cccc(O)c3n2)c1,14.8%
21,Cc1ccc(CNC(=O)c2cc(COc3c(F)cccc3F)on2)s1,11.6%
22,O=c1cc(Cl)c2ccccc2n1-c1ccccc1,7.11%
23,COc1ccc(CN(C)c2nc(-c3cccnc3)nc3ccccc23)cc1OC,6.06%

row,Structure (SMILES),"hERG current change (%, negative = inhibition) at 10uM"
1,COc1ccc(-n2nc(C(=O)NCC(=O)N3CCCCC3)c3ccccc3c2=O)c(OC)c1,15.4%
2,CCOC(=O)c1c(-c2cccs2)csc1N,10.7%
3,CCCNC(=O)c1cc(-c2ccccc2)c(N2CCCCC2)s1,14.2%
4,CC(=O)NN1CCc2cc3ccc(C)cc3nc21,8.1%
5,COC(=O)C(=C/C=C/c1cccnc1)C(=O)OC,28.7%
6,COC(=O)c1ccc(NC(=O)c2ccc(CN3CCOCC3)cc2)cc1,-8.18%
7,COc1cccc(N2CCN(c3ccc([N+](=O)[O-])cn3)CC2)c1,13.8%
8,Cl.Clc1cccc(Cl)c1CNCCCSc1ncccn1,-7.64%
9,CC(=O)OC1(Cc2ccccc2)CN2CCC1c1ccccc12.Cl (stereo not drawn),-12.7%
10,Cc1ccc2c(c1)N(CCC(=O)NCCCN1CCCC1)C(=O)CO2,12.7%
11,CCN1CCN(C(c2ccc(OC)cc2)C(O)C(=O)c2c[nH]c3ccccc23)CC1 (stereo not drawn),-69%
12,COc1cccc(N2CCN(C3OC(=O)c4ccccc43)CC2)c1 (stereo not drawn),-0.546%
13,COc1ccc(OC)c(/C=C/c2ccc3cccc(O)c3n2)c1,19.2%
14,O=c1cccc2n1C[C@@H]1C[C@@H]2CN(CC(O)c2ccc([N+](=O)[O-])cc2)C1 (stereo partly drawn),-49%
15,COc1ccc(S(=O)(=O)N2CCC(C(=O)NCC3CCCCC3)CC2)cc1,-8.15%
16,O=C(Nc1cccc(Cl)c1)C1CC1c1ccccc1 (stereo not drawn),-7.52%
17,COc1ccc(C2CC(=O)C=C(O)C2)cc1 (stereo not drawn),-27.8%
18,O=C(O)C(O)C(O)C(=O)O.O=C(c1ccc(F)cc1)C1CCN(CCn2c(=O)[nH]c3ccccc3c2=O)CC1,-51.8%
19,COc1ccc(C(=O)CN2C(=O)C(C)(C)Oc3ccc(C(=O)N4CCCCCC4)cc32)cc1,-42.8%
20,CCN(CC)S(=O)(=O)c1ccc(Cl)c(C(=O)OCC(=O)c2c(N)n(C)c(=O)n(C)c2=O)c1,-16.5%
21,COc1ccc(OC)c(C2C(C(C)=O)=C(O)C(=O)N2c2ccc(F)cc2)c1 (stereo not drawn),13.5%
